In PubChem BioAssay AID360 (National Center for Advancing Translational Sciences (NCATS), 2006) one finds Potency data, which are given here for 89 compounds.

Out of some 48,000 compounds screened, about 550 (1.1%) were called active. Another 4% or so got no clear call; they are omitted. Rule as the data show it: active = potency below about 15 µM; inconclusive = mostly about 16 µM to 33 µM; inactive = weaker than that. Some of the results follow.
Potency is read from the fitted curve at half-maximal effect.

Chain of UniProt P04062 (P04062 whole entry, looked up): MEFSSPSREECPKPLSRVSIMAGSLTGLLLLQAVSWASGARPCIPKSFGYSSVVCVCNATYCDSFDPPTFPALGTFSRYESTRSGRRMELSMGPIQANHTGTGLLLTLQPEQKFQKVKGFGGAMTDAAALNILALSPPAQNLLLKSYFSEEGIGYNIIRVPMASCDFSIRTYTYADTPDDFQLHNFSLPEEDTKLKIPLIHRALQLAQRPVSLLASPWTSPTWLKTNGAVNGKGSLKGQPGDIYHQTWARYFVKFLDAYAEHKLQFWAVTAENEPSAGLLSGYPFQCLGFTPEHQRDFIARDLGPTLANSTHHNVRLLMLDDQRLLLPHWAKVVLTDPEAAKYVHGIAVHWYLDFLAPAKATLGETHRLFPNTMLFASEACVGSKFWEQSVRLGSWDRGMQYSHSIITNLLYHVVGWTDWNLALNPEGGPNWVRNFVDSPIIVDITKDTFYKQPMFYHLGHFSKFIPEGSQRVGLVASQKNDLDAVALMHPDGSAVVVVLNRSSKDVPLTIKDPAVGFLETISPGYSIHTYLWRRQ

The assay has as its target Lysosomal acid glucosylceramidase (Homo sapiens) (UniProt P04062). Description: Glucocerebrosidase.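 Also: the screen sought inhibitors.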 To be noted: purified enzyme, resorufin glucoside fluorescence (screen aimed at inhibitors), 20 min. The method, boiled down:
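Compounds titrated against 0.2 nM normal enzyme, 30 uM resorufin beta-D-glucopyranoside substrate, citrate/phosphate buffer with taurocholate and tween-20, pH 5.9. Reaction ran 20 min at room temperature; fluorescence (Ex 548/Em 600) gave AC50.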
As to `Cn1c(=O)c2c(ncn2CC(=O)Nc2ccccc2Sc2ccccc2)n(C)c1=O`, the Potency was inactive: > 76.9 µM.

Take `Cc1cc(/N=C/C=C2\N(C)c3ccccc3C2(C)C)n(CCC#N)n1`: the Potency was inactive: > 76.9 µM.

In the case of `Cc1nn2c3c(cnc2c1-c1ccccc1)C(=O)CC(C)C3` (centres undefined), the Potency was inactive: > 76.9 µM.

Consider `COc1ccccc1CNC(=O)C1CCN(c2nc3ccccc3o2)CC1`, for which the Potency is inactive: > 76.9 µM.

Consider `O=C(CCCn1c(SCC(=O)c2ccc(F)cc2)nc2ccccc2c1=O)NCc1ccco1`, for which the Potency is inactive: > 76.9 µM.

Turning to `CC(=O)OC(Cn1ccnc1)c1ccccc1` (centres undefined), the Potency is inactive: > 76.9 µM.

`O=C1CCC(=O)N1CNc1ccc(Oc2ccccc2)cc1`: the Potency is inactive: > 76.9 µM.

For the compound `C=CC(=C)CC(NC)c1ccccc1` (centres undefined), the Potency is inactive: > 76.9 µM.

Take `c1ccc(-n2nnnc2Oc2ccc(-n3ccnc3)cc2)cc1`: the Potency entry is “inactive”.

For `COc1ccc2c(c1)c1ncnc(N3CCN(Cc4ccc5c(c4)OCO5)CC3)c1n2C`, the Potency entry is “inactive”.

As for `Cc1ccc(CNC(=O)CSc2nc(N3CCCCC3)nc(N3CCCCC3)n2)cc1`, the Potency was inactive: > 76.9 µM.

As to `CN(C)Cc1c(O)ccc2occ(C(=O)c3ccccc3)c12`, the Potency is inactive: > 76.9 µM.

With `CC1CCN(C(=O)C2CC(c3ccc(F)cc3)=NO2)CC1` (centres undefined), the Potency is inactive: > 76.9 µM.

With `Cc1ccc2c(c1)N(CC(=O)N1CCCCC1c1cccnc1)C(=O)CO2` (centres undefined), the Potency is inactive: > 76.9 µM.

Consider `Nc1nc(CSc2nc3ccccc3s2)nc(N2CCCCC2)n1`, for which the Potency was inactive: > 76.9 µM.

On to `CN1C(=O)NC(NC(=O)C2CCCCC2)(C(F)(F)F)C1=O` (centres undefined), for which the Potency is inactive: > 76.9 µM.

With `COc1ccc(C2C(C(=O)Nc3cc(C)on3)c3ccccc3C(=O)N2C)cc1OC` (centres undefined), the Potency is inactive: > 76.9 µM.

With `O=C1c2ccccc2S(=O)(=O)N1Cc1cc(=O)n2ccsc2n1`, the Potency is inactive: > 76.9 µM.

As for `O=C(NCCN1CCOCC1)c1cc2ccccc2o1`, the Potency was inactive: > 76.9 µM.

`CS(=O)(=O)N1CCC(C(=O)Nc2ccc(F)cc2F)CC1`: the Potency was inactive: > 76.9 µM.

Take `CN1/C(=C/C(=O)c2nc(S(C)(=O)=O)ncc2Cl)C(C)(C)c2ccccc21`: the Potency was inactive: > 76.9 µM.

In the case of `COc1ccc(CNC(=O)C2CC(c3ccc(F)cc3)=NO2)cc1` (centres undefined), the Potency was inactive: > 76.9 µM.

For the compound `O=C(CCNS(=O)(=O)c1ccc(Cl)cc1)N1CCC2(O)CCCCC2C1` (centres undefined), the Potency is inactive: > 76.9 µM.

`CN(CC(=O)NCCc1ccccc1)S(=O)(=O)c1cccs1`: the Potency was inactive: > 76.9 µM.

As for `CCCOc1ccc(-c2nnc(-c3ccncc3)o2)cc1`, the Potency was inactive: > 76.9 µM.

As for `COc1ccc(-n2nc3c(c2NC(=O)C2CC2)CS(=O)C3)cc1` (centres undefined), the Potency is inactive: > 76.9 µM.

In the case of `CCOC(=O)N1CCN(C(=O)c2cc(S(=O)(=O)N3CCCC3)cn2C)CC1`, the Potency was inactive: > 76.9 µM.

Turning to `COc1ccc(N2CC(C(=O)Nc3ccc(N4CCOCC4)cc3)CC2=O)cc1` (centres undefined), the Potency was inactive: > 76.9 µM.

Consider `O=C(c1ccc(S(=O)(=O)N2CCOCC2)cc1)N1CCN(c2ccccc2F)CC1`, for which the Potency was inactive: > 76.9 µM.

`CCOC(=O)C1=C(C)NC(C)=C(C(=O)OCC)C1C(=O)OCC(=O)c1ccc2c(c1)OCCO2`: the Potency was inactive: > 76.9 µM.

Take `CN(CCOc1ccc(Cl)cc1)c1ccc(S(=O)(=O)N2CCCCC2)cn1`: the Potency is inactive: > 76.9 µM.

On to `CCn1c(SCC(=O)N2CCN(c3ccc(F)cc3)CC2)nnc1-c1ccncc1`, for which the Potency was inactive: > 76.9 µM.

Regarding `Cc1noc(C)c1S(=O)(=O)NCCCN1CCN(Cc2ccccc2)CC1`, the Potency is inactive: > 76.9 µM.

As to `O=C(O)c1ccccc1C(=O)Nc1ccccn1`, the Potency is inactive: > 76.9 µM.

For the compound `COc1cc(OC)cc(-c2nnc(SCC(=O)N3CCCC3)o2)c1`, the Potency is inactive: > 76.9 µM.

For `CC(CNS(=O)(=O)c1cc(Cl)ccc1Cl)CN(C)C` (centres undefined), the Potency was inactive: > 76.9 µM.

Take `Cc1cccc(C)c1NC(=O)Nc1cccs1`: the Potency was inactive: > 76.9 µM.

`Cn1cc(/C(Cc2ccccc2)=N\O)c2ccccc21`: the Potency is inactive: > 76.9 µM.

Consider `Cc1cc(C(F)(F)F)c2c(=O)[nH]c(=O)n(Cc3ccccc3)c2n1`, for which the Potency is inactive: > 76.9 µM.

`Nc1ccc(-c2nnc(-c3ccc(-c4ccccc4)cc3)o2)cc1`: the Potency is inactive: > 76.9 µM.

For `O=C1CC(N2CCN(C/C=C/c3ccccc3)CC2)C(=O)N1Cc1cccs1` (centres undefined), the Potency is inactive: > 76.9 µM.

On to `COc1cc2[nH]c(=O)n(CCC(=O)NC3CCN(Cc4ccccc4)CC3)c(=O)c2cc1OC`, for which the Potency is inactive: > 76.9 µM.

Regarding `Cc1cc(C)nc(SCC(=O)O)n1`, the Potency was inactive: > 76.9 µM.

Take `O=C(NCc1ccncc1)c1cnccn1`: the Potency was inactive: > 76.9 µM.

As for `NCCCCCc1nnc(SCC(=O)c2ccc(Cl)cc2)o1`, the Potency was inactive: > 76.9 µM.

For the compound `O=C(Cn1c(CN2CCCCC2)nc2ccccc2c1=O)NC1CCCCC1`, the Potency is inactive: > 76.9 µM.

Consider `COc1cccc(N(C(=O)c2cccs2)c2nc3ccccc3s2)c1`, for which the Potency was inactive: > 76.9 µM.

Consider `Cc1cccc(NC(=O)c2cc(NC(=O)C3CCCCC3C(=O)O)ccc2N2CCCCC2)c1` (centres undefined), for which the Potency result is “inactive”.

With `COC(=O)c1[nH]c2ccc(C)cc2c1NC(=O)CN1CCc2cc(OC)c(OC)cc2C1`, the Potency was inactive: > 76.9 µM.

Take `N#CCCCSc1nnc(CSc2nc3ccccc3s2)n1-c1ccccc1`: the Potency was inactive: > 76.9 µM.

For the compound `COc1ccc2[nH]c(=O)c(CN(Cc3ccc(C)cc3)Cc3nnnn3CC3CCCO3)cc2c1` (centres undefined), the Potency was inactive: > 76.9 µM.

For `COc1ccc(N(Cc2ccco2)C(=O)c2ccccc2F)cc1OC`, the Potency is inactive: > 76.9 µM.

In the case of `CCCCn1c(-c2cc(Cl)ccc2OC)n[nH]c1=S`, the Potency is inactive: > 76.9 µM.

Turning to `COc1ccc(Cl)cc1C(=O)Nc1nnn(C)n1`, the Potency is inactive: > 76.9 µM.

Consider `CCCc1cc(C(=O)N2CCN(c3ccccc3C)CC2)cs1`, for which the Potency is inactive: > 76.9 µM.

For `COc1cc(NC(=O)C(C)Oc2ccccc2)c(C(=O)O)cc1OC` (centres undefined), the Potency is inactive: > 76.9 µM.

On to `CCOC(=O)c1[nH]c2cc(OC)c(OC)cc2c1NC(=O)CN1CCN(C)CC1`, for which the Potency is inactive: > 76.9 µM.

For the compound `Cn1c(N2CCC(C(N)=O)CC2)nc2c1c(=O)n(Cc1ccc(Cl)cc1)c(=O)n2C`, the Potency is inactive: > 76.9 µM.

Regarding `CCC1(CC)C(=O)N=C2c3ccccc3C(=O)N21`, the Potency was inactive: > 76.9 µM.

With `CCOC(=O)N1CCN(C(=O)CC(C(=O)N2CCc3ccccc32)n2ccnc2)CC1` (centres undefined), the Potency was inactive: > 76.9 µM.

In the case of `Cc1c(C(=O)OCC(=O)N(CCC#N)c2ccccc2)oc2c1ccc1ccccc12`, the Potency was inactive: > 76.9 µM.

For the compound `CCOC(=O)C(NC(C)=O)(NS(=O)(=O)c1ccccc1)C(F)(F)F` (centres undefined), the Potency was inactive: > 76.9 µM.

As to `Cn1c(=O)[nH]c(=O)c2c1nc(CN1CCN(c3cccc(Cl)c3)CC1)n2CCN1CCOCC1`, the Potency was inactive: > 76.9 µM.

Take `Cn1c(CSCc2ccccc2Cl)nnc1SCC(=O)Nc1nccs1`: the Potency was inactive: > 76.9 µM.

As to `CCn1cc(C(=O)NCC2CCCO2)c(=O)c2cc(S(=O)(=O)N3CCC(C)CC3)ccc21` (centres undefined), the Potency is inactive: > 76.9 µM.

For the compound `Cc1cccc(NS(=O)(=O)c2ccc(Oc3ccccc3)cc2)n1`, the Potency was inactive: > 76.9 µM.

In the case of `CCOC(=O)C1=C(C)Nc2ccccc2N=C1NC(=O)c1cccc(S(=O)(=O)N(C)C)c1`, the Potency was inactive: > 76.9 µM.

For `Cc1cc(-n2[nH]c(C)c(C)c2=O)nc(-c2ccccc2O)n1`, the Potency is inactive: > 76.9 µM.

For the compound `Cc1cc(NC(=O)C(C)C)ncc1NC(=O)c1cccc(F)c1`, the Potency is inactive: > 76.9 µM.

On to `COC(=O)C(C)Sc1nc2c(c(=O)[nH]c(=O)n2C)n1CCCc1ccccc1` (centres undefined), for which the Potency was inactive: > 76.9 µM.

As to `Cc1cc2c(c(=O)n1C1CC1)C(c1cccc(Cl)c1)C(C#N)=C(N)O2` (centres undefined), the Potency was inactive: > 76.9 µM.

For `O=C(N1CCOCC1)N(Cc1cccs1)C1CCCC1`, the Potency was inactive: > 76.9 µM.

On to `COc1ccccc1N(CC(=O)NC1CCCCC1)C(=O)CCC(=O)Nc1ccccn1`, for which the Potency is inactive: > 76.9 µM.

For `COc1ccccc1NC(=O)CSc1nnc(C)o1`, the Potency is inactive: > 76.9 µM.

Turning to `CC(=O)N1CCc2cc(S(=O)(=O)NCCCOC(C)C)ccc21`, the Potency was inactive: > 76.9 µM.

Turning to `COc1ccccc1C1c2c(oc3ccc(Cl)cc3c2=O)C(=O)N1c1cc(C)on1` (centres undefined), the Potency was inactive: > 76.9 µM.

For the compound `COc1cccc(N2CCN(CC(=O)c3c[nH]c4ccc(OC)cc34)CC2C)c1` (centres undefined), the Potency was inactive: > 76.9 µM.

For `Cn1c(=O)c2c(ncn2CC(=O)Nc2ccc(Cl)cc2Cl)n(C)c1=O`, the Potency is inactive: > 76.9 µM.

With `CC(C)(C)C(=O)Nc1ncc(C(F)(F)F)cc1Cl`, the Potency was inactive: > 76.9 µM.

Turning to `CCOC(=O)CSc1nnc(-c2ccco2)n1-c1ccccc1`, the Potency was inactive: > 76.9 µM.

On to `Cc1ccc(-c2nn3c(C)nnc3s2)cc1NC(=O)c1ccc(-c2ccc(Cl)cc2Cl)o1`, for which the Potency is inactive: > 76.9 µM.

For the compound `Cc1cccc(N(CC(=O)NCc2ccc3c(c2)OCO3)C(=O)CCC(=O)Nc2ccccn2)c1`, the Potency was inactive: > 76.9 µM.

For the compound `CCC(C)(C(=O)NC1CCCC1)N(Cc1cccs1)C(=O)Cc1cccs1` (centres undefined), the Potency was inactive: > 76.9 µM.

Turning to `CCCCC(=O)Nc1ccc2c(c1)nc1n2CCSC1`, the Potency result is “inactive”.

Take `CC1=C(C(=O)Nc2ccccc2)C(c2cccs2)C(C#N)=C(SCC#N)N1` (centres undefined): the Potency was inactive: > 76.9 µM.

For `O=C(O)Cn1cc(C(=O)c2cccs2)c2ccccc21`, the Potency was inactive: > 76.9 µM.

With `COCCNC(=O)C(c1cccs1)N(C(=O)Cn1nnc2ccccc21)c1cccc(C(C)=O)c1` (centres undefined), the Potency is inactive: > 76.9 µM.

Regarding `CCOC(=O)Nc1ccccc1N1C(=O)c2ccccc2C1=O`, the Potency was inactive: > 76.9 µM.

As to `Cc1nc2ncnn2c(C)c1CCC(=O)N1CCc2ccccc2C1`, the Potency is inactive: > 76.9 µM.
